Data taken from PubChem BioAssay AID1460 (National Center for Advancing Translational Sciences (NCATS), 2008).
Hit rate of the full screen: of about 270,000 compounds, about 5,800 (2.1%) were called active. Inconclusive means that the source gave no clear call. Such entries were picked first, then a sample of the others. The call rests on the fitted dose curve; in most records, active means well fitted inhibition curve with a large enough effect; inconclusive means small, poorly fitted or top-dose-only effect; inactive means flat fitted curve, though single readings scatter. A potency beside an inconclusive call is a rough fit, not a confirmed value.

Biological target: Microtubule-associated protein tau (Homo sapiens) (UniProt P10636)
Sequence of UniProt P10636 (P10636 whole entry, looked up): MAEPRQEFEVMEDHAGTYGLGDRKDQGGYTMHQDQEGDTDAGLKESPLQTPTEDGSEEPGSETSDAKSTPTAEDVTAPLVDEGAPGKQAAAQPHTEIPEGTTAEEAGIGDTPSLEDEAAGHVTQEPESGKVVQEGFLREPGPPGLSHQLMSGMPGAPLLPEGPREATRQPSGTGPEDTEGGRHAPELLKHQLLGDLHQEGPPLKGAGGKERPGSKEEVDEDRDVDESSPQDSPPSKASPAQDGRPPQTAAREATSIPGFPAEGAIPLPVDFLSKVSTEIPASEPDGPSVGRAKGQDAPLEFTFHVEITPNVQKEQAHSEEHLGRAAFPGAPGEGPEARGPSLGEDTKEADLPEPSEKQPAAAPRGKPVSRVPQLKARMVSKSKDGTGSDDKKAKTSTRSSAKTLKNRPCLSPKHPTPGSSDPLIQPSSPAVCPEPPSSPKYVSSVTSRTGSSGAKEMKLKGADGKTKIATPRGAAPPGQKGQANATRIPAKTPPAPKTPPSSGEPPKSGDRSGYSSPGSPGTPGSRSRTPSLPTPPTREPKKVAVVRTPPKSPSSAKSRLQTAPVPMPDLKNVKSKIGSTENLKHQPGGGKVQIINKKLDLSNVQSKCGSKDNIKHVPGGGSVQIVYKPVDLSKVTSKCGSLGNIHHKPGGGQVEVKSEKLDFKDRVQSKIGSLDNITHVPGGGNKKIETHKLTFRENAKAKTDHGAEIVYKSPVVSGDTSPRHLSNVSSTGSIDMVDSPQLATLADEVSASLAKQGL
Assay: qHTS for Inhibitors of Tau Fibril Formation, Thioflavin T Binding; further: nearly all actives have a fitted effect of over 55% in size
Details: recombinant tau K18 P301L (four-repeat tau fragment), heparin-induced fibrillization, ThT fluorescence; series mostly up to 57.4 µM; activity, negative = inhibition: at the top concentration
Description: NIH Molecular Libraries Probe Production Network [MLPCN]
NIH Chemical Genomics Center [NCGC]
Assay Provider: Carlo Ballatore, University of Pennsylvania
The microtubule-associated protein tau is an abundant protein in the axons of neurons that stabilizes microtubules. With its ability to modulate microtubule dynamics, tau contributes directly or indirectly, to key structural and regulatory cellular functions. Particularly important is the influence tau exerts on axonal transport, which allows signaling molecules, trophic factors and other essential cellular constituents to travel along the axons. Under pathological conditions, tau becomes sequestered into insoluble aggregates called neurofibrillary tangles. This phenomenon is believed to have pathological consequences by promoting axonal transport deficits that ultimately lead to synaptic dysfunction and neuronal loss. To identify inhibitors of tau aggregation, a heparin-induced tau fibril formation assay was used that employed a recombinantly expressed fragment of tau, K18 (Q242-E372), bearing a P301L mutation (Gustke et al. 1994; Hong et al. 1998). This assay monitors tau fibrillization by Thioflavin T (ThT) fluorescence.
Gustke, N., B. Trinczek, et al. (1994). "Domains of tau protein and interactions with microtubules." Biochemistry 33(32): 9511-22.
Hong, M., V. Zhukareva, et al. (1998).
Li, W. and V. M. Lee (2006).
von Bergen, M., S. Barghorn, et al. (2001). "Mutations of tau protein in frontotemporal dementia promote aggregation of paired helical filaments by enhancing local beta-structure." J Biol Chem 276(51): 48165-74.
NCGC Assay Protocol Summary:
For screening, 2 uL/well human K18 P301L (15 uM unlabeled and 0.24 uM Alexa 594-labeled tau, final concentrations) in reagent buffer (100 mM sodium acetate pH 7) was dispensed into black solid 1536-well plates (Grenier) using a solenoid-based dispenser. Following transfer of 23 nL compound or DMSO vehicle by a pin tool, 2 uL/well heparin (20 uM final concentration) in reagent buffer was added and the plate centrifuged 15 s at 1000 RPM. Plates were incubated 6 hr at 37 C and then 1 uL/well ThT (30 uM final concentration) was added. After a 1 hr ambient incubation, the plates were read by an Envision (Perkin Elmer) to monitor ThT fluorescence (450/8 nm excitation and 510/23 nm emission).
Keywords: NIH Roadmap, MLPCN, MLI, MLSMR, NCGC, qHTS, tau, tauopathies, Alzheimer's disease, fibril, neurodegeneration, aggregation
On the % scale 0 is the no-effect control and ±100 the full control effect; potency means the concentration at half of the fitted maximal effect; tags describe the fitted curve by direction and shape.

| Structure (SMILES) | Potency | activity, negative = inhibition |
| --- | --- | --- |
| Oc1cc(-n2cccn2)c(O)cc1-n1cccn1 | active: 15.8 µM |  |
| O=C(COC(=O)Cc1ccc(Br)cc1)NC12CC3CC(CC(C3)C1)C2 | inconclusive: 39.8 µM [inhibitor, single point] |  |
| COc1ccc(NC(=O)CSc2nc3c(c(=O)n2-c2ccccc2OC)SCC3)cc1 | inconclusive: 20 µM [inhibitor, single point] |  |
| Cc1cc(OCC(=O)Nc2ccc(-c3nc4cc(Cl)ccc4o3)cc2)cc(C)c1Cl | inconclusive: 14.1 µM [inhibitor, partial curve, poor fit] |  |
| CC(C)C(NC(=O)C1CCCCC1)C(=O)Nc1ccc2c(c1)OCCO2 (stereo not drawn) | inconclusive: 8.91 µM [inhibitor, full curve, poor fit] |  |
| Cc1ccc(NCc2nnc(SCC(=O)OC3CCCCC3)o2)c(C)c1 | inconclusive: 10 µM [inhibitor, partial curve] |  |
| COc1ccccc1N1CCN(C(=O)c2oc3cc(C)c(C)cc3c2C)CC1 | inconclusive: 10 µM [inhibitor, partial curve, poor fit] |  |
| COCCN(C(=O)Nc1ccccc1)c1ccccc1C |  | inactive: 4.67% |
| COc1cccc(/C=N/Nc2cc(C)nc(-c3ccccc3O)n2)c1O | inconclusive: 3.98 µM [inhibitor, full curve] |  |
| O=C(Nc1ccccc1C(=O)O)/C(=C/c1ccc([N+](=O)[O-])cc1)NC(=O)c1ccc(Br)o1 | inconclusive: 22.4 µM [inhibitor, single point] |  |
| Cc1cccc(CNC(=O)c2oc3c(c2C)-c2nn(Cc4ccccc4Cl)cc2CC3)c1 | inconclusive: 14.1 µM [inhibitor, partial curve] |  |
| Cc1c(Cl)cccc1NC(=O)CSc1ncnc2c1sc1ccccc12 |  | inactive: 0.829% |
| CCc1cc2c(NCC(=O)O)ncnc2s1 |  | inactive: -10.1% |
| CC[C@@H]1C(c2cccc(Cl)c2)=NN(c2ccccc2)[C@H]1C(=O)N1CCOC1=O | inconclusive: 8.91 µM [inhibitor, full curve, poor fit] |  |
| O=S(=O)(c1ccc(NC(=S)N2CCN(c3ccc(O)cc3)CC2)cc1)N1CCOCC1 | inconclusive: 39.8 µM [inhibitor, single point] |  |
| CN(C)c1ccc(CN(C(=O)/C=C/c2ccco2)C2CCS(=O)(=O)C2)cc1 (stereo not drawn) |  | inactive: -15.2% |
| CCN(CC)CCOc1ccc2c(c1)C(=O)c1cc(OCCN(CC)CC)ccc1-2 | inconclusive: 20 µM [inhibitor, partial curve] |  |
| CCOc1ccc(NC2OCC(O)C(O)C2O)c([N+](=O)[O-])c1 (stereo not drawn) | inconclusive: 44.7 µM [inhibitor, single point] |  |
